Test results as given in PubChem BioAssay (NCI).
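All cell lines were grown in 96-well plates and treated with compound for 48 hours. At the GI50, growth is halved. TGI marks complete inhibition of growth.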

What follows are compounds tested on NCI-H322M lung (assay: DTP human tumour cell line panel, 48 h).

Row | Structure (SMILES) | GI50 [nM] | TGI [µM]
1 | COCCn1c2c([n+](Cc3cnccn3)c1C)C(=O)c1ccccc1C2=O | 14.3 | 0.104
2 | CN(C)c1ccc(/C=c2/c3cc(O)ccc3n3c2cc(-c2ccccc2)[n+]3C)cc1 | 3660 | –
3 | CN(/N=C/C=N/N(C)C1=NCCN1)C1=NCCN1 | – | > 100
4 | CCCCCCCCCCCCCCCCCC[S+](C)CC (stereo not given) | 1870 | 5.38
5 | CCC(C)C1NC(=O)C(NC(=O)C(CC(C)C)N(C)C(=O)[C@@H]2CC(O)CN2C(=O)[C@H](C)O)C(C)OC(=O)[C@H](Cc2ccc(OC)cc2)N(C)C(=O)[C@@H]2CCCN2C(=O)[C@H](CC(C)C)NC(=O)C(C)C(=O)[C@H](C(C)C)OC(=O)CC1O (stereo not given in full) | – | 2.08
6 | O=C1c2ccc3c4c(ccc(c24)C(=O)N1CCNCc1ccccc1)C(=O)N(CCNCc1ccccc1)C3=O | 2220 | 5.69
7 | O=C(CC1(O)C(=O)Nc2ccccc21)c1ccccc1O (stereo not given) | – | > 100
8 | C=C(Br)COc1ccc2c(C)cc(=O)oc2c1 | – | > 100
9 | COc1ccc(/C=C/C(=O)CCN2CCN(CCC(=O)/C=C/c3ccc(OC)cc3)CC2)cc1 | – | 69.5
10 | O=C1c2ccccc2C(=O)N1NC1=NCCN1 | – | > 100
11 | Nc1n[nH]c2ccc([C@@H]3Nc4ccc5cn[nH]c5c4[C@H]4C5CCC(C5)[C@@H]34)cc12 (stereo not given in full) | 610 | > 100
12 | Cc1ccc(S(=O)(=O)Nn2c(S)c(C#N)c(-c3ccc(Cl)cc3)c(C#N)c2=O)cc1 | – | > 100
13 | Cc1ccc(NC(=O)CC2SC(=Nc3ccc(Cl)cc3)NC2=O)cc1C (stereo not given) | – | 61.1
14 | CCN(/N=C1\CC2C=CCN(C2)C(=O)Cc2c1[nH]c1ccccc21)S(=O)(=O)c1ccc(C)cc1 (stereo not given) | – | > 100
15 | COC(=O)Nc1nc2ccc(C(=O)c3ccc(F)cc3)cc2[nH]1 | 1010 | > 100
16 | CCN(CC)C(=O)CC12CCCCC1=Nc1ccccc12 (stereo not given) | – | > 100
17 | COC(=O)[C@H](Cc1ccccc1)NC(=O)N(CCNC(=O)OC(C)(C)C)c1ccccc1 | – | > 100
18 | COc1ccc(CNc2nc3cc(C(F)(F)F)ccc3nc2C(=O)O)cc1 | – | 72.1
19 | CCOC(=O)CC1Nc2ccccc2C12CCc1c([nH]c3ccccc13)C2C(=O)OCC (stereo not given) | – | > 100
20 | CC(=O)O[C@@H]1CC[C@@]2(C)C(=O)C34C[C@@]5(C)C([C@@H](C)CCCC(C)C)CCC5(C)[C@](O)(O3)C(=O)[C@H]4C2C1(C)C (stereo not given in full) | – | 33.3
21 | CCc1ncc(CO)n1Cc1cccc2ccccc12 | – | > 100
22 | O=C(CC(C(=O)c1cccs1)c1ccc2c(c1)OCO2)c1ccccc1 (stereo not given) | – | > 100
23 | COc1ccc(Nc2cc(=O)[nH]c(=O)[nH]2)cc1 | – | > 100
24 | COc1ccc(C=O)cc1OS(=O)(=O)C(F)(F)C(F)(F)C(F)(F)C(F)(F)F | – | > 100
25 | CC(=O)ON=C1C=CC(=C(C#N)c2ccccc2)C=C1 | 3440 | 16.8

Row | Structure (SMILES) | GI50 [nM] | TGI [µM]
26 | Clc1ccccc1C1SCc2nc3ccccc3n21 (stereo not given) | – | > 100
27 | CCCCCCCCCCCCCCCCCCOc1ccccc1COP(=O)(O)OOCC[N+](C)(C)C | 6200 | 13.2
28 | NC1NCCC(=O)N1CCc1c[nH]c2ccccc12 (stereo not given) | – | 63.4
29 | Cc1cccc(N=N/C(=N\NC(=O)c2cc(Cl)ccc2O)c2ccc(N(CCC#N)CCC#N)cc2C)c1 | – | 94.9
30 | Nc1nc(N)c2c(n1)CCC(S(=O)(=O)c1ccc3ccccc3c1)C2 (stereo not given) | – | > 95.6
31 | COc1c(B(O)O)cccc1-c1nc2c(F)cc3n[nH]c(C)c3c2c2c1CCCC2 | 1500 | > 50
32 | O=C(Nc1ccc(Cl)cc1)c1cc(S(=O)(=O)N2CCNNC2=O)c(S)cc1Cl | – | > 100
33 | CN(C)CC(C)(C)CN1c2ccccc2Sc2ccccc21 | – | 28.8
34 | CN(Cc1cnc2nc(N)nc(N)c2n1)c1ccc(C(=O)NCCCC(=O)O)cc1 | – | > 100
35 | CON[N+]([O-])=NC(C)C | – | > 100
36 | c1cc(CSc2ncnc3nc[nH]c23)ccn1 | – | > 100
37 | S=C1NNC2(C(=S)N1)c1ccccc1-c1ccccc12 | – | > 10
38 | CCCCCCc1cc2cc(C(=O)Nc3cccc(F)c3)c(=N)oc2cc1O | – | 7.86
39 | C=C(C)CCC(O)[C@](C)(O)[C@H]1[C@H](O)C[C@@]2(C)[C@@H]3CCc4c(cc(OC5OC(CO)C(O)C(O)C5O)c(O)c4C)C3(C)C(=O)C[C@]12C (stereo not given in full) | – | > 100
40 | COc1ccc([C@@H]2OC(=O)C3C2C(=O)O[C@H]3c2ccc(OC)cc2)cc1 (stereo not given in full) | – | > 100
41 | O=C1CCC2COc3ccc(O)c1c32 (stereo not given) | – | > 100
42 | Cn1c(=O)n(C2(C)CSC2)c2ccccc21 | – | > 100
43 | COc1cc(N(CCCl)CCCl)ccc1/C=N\NC(=O)c1cccnc1 | 45900 | > 100
44 | Cc1cc(C)c(/C=N/NS(=O)(=O)c2ccccc2)c(C)c1 | – | > 100
45 | Fc1ccc(N=C2C=CC(=Nc3ccc(F)cc3)c3ccccc32)cc1 | – | > 100
46 | CC1(C)C(CC(=O)O)CCCC1CC(=O)O (stereo not given) | – | > 100
47 | O=CC1OC(=O)c2cc(O)c(O)c(O)c2-c2c(cc(O)c(O)c2O)C(=O)OC1C1OC(=O)c2cc(O)c(O)c(O)c2-c2c(O)c(O)c3oc(=O)c4c(c(O)c(O)c5oc(=O)c2c3c54)-c2c(cc(O)c(O)c2O)C(=O)OCC1O (stereo not given) | – | > 100
48 | COc1cc(CC(=O)O)c([N+](=O)[O-])cc1OC | – | > 100
49 | CC#CC#C/C(=C/C=CC(=O)OC)SC | – | > 100
50 | COc1cc2c(cc1OCCCN1CCN(C(=S)SCCC(C#N)(c3ccccc3)c3ccccc3)CC1)N=C[C@@H]1CCCN1C2=O | 2090 | 4.53
